Laboratory results reported in PMC4336329 (PLoS ONE, 2015).
Screen size: about 310,000 compounds; about 14,000 (4.5%) showed an effect of 50% or more. The effect is printed as a negative number. Some of the results follow.

target: human ether-à-go-go-related gene (hERG) potassium channel (human, UniProt Q12809); experiment: primary screen, population patch clamp on CHO cells stably expressing hERG
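Also: peak tail current of the secondary pulse compared with the same well before compound.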

Chain of human ether-à-go-go-related gene (hERG) potassium channel (Q12809 whole entry, looked up): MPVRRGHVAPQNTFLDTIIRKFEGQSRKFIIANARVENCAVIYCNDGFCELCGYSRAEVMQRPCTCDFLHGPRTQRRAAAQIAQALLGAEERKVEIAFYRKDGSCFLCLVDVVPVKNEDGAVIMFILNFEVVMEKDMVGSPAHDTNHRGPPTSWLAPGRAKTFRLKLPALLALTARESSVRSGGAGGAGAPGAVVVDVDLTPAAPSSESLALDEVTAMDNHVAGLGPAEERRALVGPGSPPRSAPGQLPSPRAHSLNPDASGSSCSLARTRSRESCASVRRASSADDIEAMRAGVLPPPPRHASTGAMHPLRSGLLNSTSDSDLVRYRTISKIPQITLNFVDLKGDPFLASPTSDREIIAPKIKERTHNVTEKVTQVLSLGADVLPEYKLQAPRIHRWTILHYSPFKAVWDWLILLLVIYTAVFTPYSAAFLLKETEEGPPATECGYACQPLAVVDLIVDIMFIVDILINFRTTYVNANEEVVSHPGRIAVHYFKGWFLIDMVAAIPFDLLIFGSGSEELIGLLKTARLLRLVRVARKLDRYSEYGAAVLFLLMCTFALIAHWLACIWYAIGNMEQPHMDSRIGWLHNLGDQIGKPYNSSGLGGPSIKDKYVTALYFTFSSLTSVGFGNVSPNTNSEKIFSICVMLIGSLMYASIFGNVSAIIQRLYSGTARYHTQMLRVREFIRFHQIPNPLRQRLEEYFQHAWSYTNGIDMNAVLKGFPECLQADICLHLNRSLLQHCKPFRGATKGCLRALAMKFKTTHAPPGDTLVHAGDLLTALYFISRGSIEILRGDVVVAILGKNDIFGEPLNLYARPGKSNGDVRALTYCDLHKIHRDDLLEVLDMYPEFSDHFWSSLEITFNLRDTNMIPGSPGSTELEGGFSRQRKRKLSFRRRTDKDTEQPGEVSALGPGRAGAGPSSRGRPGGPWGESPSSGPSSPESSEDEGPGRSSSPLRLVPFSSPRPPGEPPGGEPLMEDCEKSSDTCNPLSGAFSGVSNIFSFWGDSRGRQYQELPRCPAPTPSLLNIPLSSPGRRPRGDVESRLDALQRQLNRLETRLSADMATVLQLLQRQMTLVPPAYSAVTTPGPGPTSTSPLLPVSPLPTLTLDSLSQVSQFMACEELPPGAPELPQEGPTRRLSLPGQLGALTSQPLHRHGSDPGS

Compound | hERG current change (%, negative = inhibition) at 10uM [%]
CCCc1c(-c2ccc(O)cc2)nn(-c2ccc(O)cc2)c1-c1ccc(O)cc1 | 12.6
COC(=O)CSC(=S)N1C(C)CCCC1C (centres unmarked) | 37.2
O=C(NCCc1ccc(F)cc1)Nc1ccccc1Cl | 11.6
O=C(/C=C/c1cccc(F)c1)N(c1ccccn1)C1CCCCC1 | 9.8
COc1cccc(CNC(=O)CCCNC(=O)c2ccc(Cl)cc2)c1 | -6.61
CC(C)N(Cc1ccccc1)C(=O)CN1C(=O)NC2(CCCC2)C1=O | 1.82
Cc1nn2c(=O)c(NC(=O)c3ccc(Cl)cc3)cnc2s1 | -6.02
COc1cc(C(=S)N2CCOCC2)ccc1OC(=O)c1cc([N+](=O)[O-])c(C)c([N+](=O)[O-])c1 | 29.4
Cc1ccc(NC(=O)c2ccc3ncsc3c2)cc1S(=O)(=O)N(C)C | -11.9
COc1cc(/C=N/OCC(=O)NC23CC4CC(CC(C4)C2)C3)ccc1OCc1ccccc1 | 19.6
O=C(Nc1nncs1)c1cccc(S(=O)(=O)N2CCc3ccccc32)c1 | -5.05
CCn1cc(CN2CCC(C(=O)Nc3ccc(Oc4ccccc4)nc3)CC2)cn1 | -30.3
Cc1nc(C(=O)O)sc1C1(C)CC(c2cccc([N+](=O)[O-])c2)=NO1 (centres unmarked) | -5.77
O=[N+]([O-])c1ccc(N2CCN(C(=S)NCc3ccc(Cl)cc3)CC2)cc1 | -8.05
O=C(NCc1ccccc1)NC1CCS(=O)(=O)C1 (centres unmarked) | 13.6
CC1=Nn2c(nnc2-c2n[nH]c3c2CCC3)SC1 | 8.18
Cc1cc(=O)n(C2CCS(=O)(=O)C2)[nH]1 (centres unmarked) | 14.7
Clc1ccc(-n2ncc3c(NCc4ccccn4)ncnc32)cc1 | 4.15
CS(=O)(=O)N1CCN(c2ccccc2NC(=S)NC(=O)c2ccco2)CC1 | -1.12
CCOC(=O)Cc1csc(NC(=O)/C=C/c2ccco2)n1 | -10.1
Nc1cccc(S(=O)(=O)c2ccc(N)c(N)c2)c1 | 21.4
Cn1c(=O)c2c(SCC(=O)Nc3ccccc3F)nc(C3CC3)nc2n(C)c1=O | -3.79

Compound | hERG current change (%, negative = inhibition) at 10uM [%]
COc1ccc2c3c(c(=O)oc2c1OCC(=O)C(C)(C)C)CCCC3 | 2.28
CN(C)S(=O)(=O)c1ccc(NC(=O)CSc2n[nH]c(=O)n2C2CC2)cc1 | 47.2
CCNC(=O)NC(=O)C(C)On1nnc2ccc(S(=O)(=O)N(CC)CC)cc21 (centres unmarked) | 3.03
O=C(c1nnc(Cc2ccc(Cl)cc2)o1)N1CCc2ccccc2C1 | -14.8
Cc1occc1C(=O)NNC(=O)c1ccc(Br)o1 | 21.8
O=C(c1cc(-c2cccs2)on1)N1CCc2ccccc2C1 | 2.17
Clc1c(-c2nnc3n2CCCCC3)sc2ccccc12 | -13.9
Cc1nnc(SC(C)C(=O)Nc2ccc(S(=O)(=O)NC3CCCCC3)cc2)s1 (centres unmarked) | -0.964
Cc1ccc2cc(C3C(C#N)=C(N)Oc4c3ccc3cccnc43)c(=O)[nH]c2c1 (centres unmarked) | -21.5
CCOC(=O)c1[nH]c2ccc(OC)cc2c1NC(=S)N1CCN(c2ccccn2)CC1 | -6.45
Cc1cccc(C(C(=O)NC2CCCC2)N(C(=O)c2csnn2)C2CC2)c1 (centres unmarked) | -30.1
CC(C)[C@H](NC(=O)OCc1ccccc1)C(=O)OCC(=O)NC1(C#N)CCCC1 | 17.3
COc1ccccc1-c1ocnc1C(=O)N1CCN(S(=O)(=O)c2ccc(NC(C)=O)cc2)CC1 | 2.61
COc1ccc(O)c(/C=N/Nc2nc3ccccc3[nH]2)c1 | -23.7
Cc1ccc(S(=O)(=O)CC(=O)c2ccc(C)c([N+](=O)[O-])c2)cc1 | 2.91
CS(=O)(=O)c1ccc(C(=O)NCC(c2ccco2)N2CCCCC2)cc1 (centres unmarked) | 18
CCOC(=O)c1c(C)[nH]c(C)c1C(=O)CN1C(=O)NC2(CCC(C)CC2)C1=O (centres unmarked) | 12.9
COc1ccccc1NC(=O)CCC(=O)N1CC(C)Oc2ccc(C)cc21 (centres unmarked) | -1.81
O=C(c1cnc2n(c1=O)CCS2)N1CCN(C(c2ccccc2)c2ccc(Cl)cc2)CC1 (centres unmarked) | -52.4
O=C(NCC(=O)N(c1ccccc1)C(C(=O)NC1CCCCC1)c1cccnc1)c1ccco1 (centres unmarked) | 6.65
CC(C)OC(=O)CSc1nnnn1-c1ccc2c(c1)OCCO2 | -2.67
O=C(N/N=C/c1cccc(OCc2ccccc2)c1)c1cccs1 | -1.15

Compound | hERG current change (%, negative = inhibition) at 10uM [%]
CCOC(=O)C1=C(N)OC2=C(C(=O)CCC2)C1c1ccc(C)s1 (centres unmarked) | -54.3
O=C(CN1CCCCCC1)Nc1ccccc1Oc1ccccc1 | -7.84
O=C(Nc1c(F)cccc1F)c1ccc2c(c1)CCN2S(=O)(=O)c1ccccc1 | 7.22
COC(=O)CCCC(=O)Nc1ccc(Cl)c(Cl)c1 | -3.49
COc1ccc(C(=O)Cn2c(Br)nc3c2c(=O)n(C)c(=O)n3C)cc1 | -10.6
COc1ccc2nc(Cl)c(/C=N/Nc3ccccn3)cc2c1 | 18.8
Cc1cc(C)c[n+](-c2nc([O-])sc2C=O)c1 | 8.38
Cc1ccc(C2C=NN(c3ccccc3)C2=O)cc1 (centres unmarked) | 23.7
Cn1cnnc1Sc1ccc(/C=C(\CC(=O)O)c2nc3ccccc3s2)cc1[N+](=O)[O-] | 6.84
Cc1c(C(=O)Nc2ccc(Cl)cc2)c2ccccn2c1C(=O)c1ccc(F)cc1 | -7.82
Fc1ccc(N=C2NN=C(c3cc(F)ccc3F)CS2)cc1 | -13
Cc1cc(C)n2cc(CSc3nc4ccccc4[nH]3)nc2n1 | -4.83
COC(=O)CSc1snnc1-c1ccc(Cl)c(Cl)c1 | 11.5
CCC1=C(OC(=O)N(CC)CC)N2C(=O)OC(=NCC(=O)OC)[C@]2(C)[C@H]2C1=CC[C@H]1C(=O)N(CC(=O)OC)C(=O)[C@H]12 | 2.59
COCCn1c(SCC(=O)NCC2CCCO2)nc2c(c1=O)SC(C)C2 (centres unmarked) | 20.4
CC(=O)c1cccc(NC(=O)CCc2nc3sc4c(c3c(=O)[nH]2)CCCC4)c1 | -3.33
COc1ccc(O)c(/C=N/Nc2nc(C)cc(-c3ccccc3)n2)c1 | -1.82
O=C(CC1C(=O)NCCN1CC1CCCCC1)NCc1ccc(F)cc1F (centres unmarked) | 4.98
Cc1ccc2cc3cc(C(=O)N4CCC5(CC4)OCCO5)oc3nc2c1 | 1.57
C=C[C@@H]1c2ccccc2N(S(=O)(=O)c2ccc(C)cc2)[C@H](c2ccc(C(F)(F)F)cc2)C1(C#N)C#N | 5.54
COc1ccc(/C=C2\SC(=S)N(CCCC(=O)Nc3ccccc3C(=O)O)C2=O)cc1OC | 6
O=[N+]([O-])c1cccc(-c2nnc3ccc4ccccc4n23)c1 | -38.6

Compound | hERG current change (%, negative = inhibition) at 10uM [%]
CN(C)CCCN(C(=O)C1=COCCO1)c1nc2ccc(Br)cc2s1.Cl | -67.2
O=C(/C=C/c1cccc([N+](=O)[O-])c1)Nc1ccc(NC(=O)c2cccs2)cc1 | 5.79
CCN(Cc1ccccc1)S(=O)(=O)c1c(C)[nH]c(C)c1C(=O)N1CCCC1 | 6.06
NC(=O)c1cc(C(=O)c2cccc(Cl)c2Cl)c[nH]1 | -3.85
CCOC(=O)c1ccc(Cl)c(NC(=O)c2ccc(-c3ccccc3)cc2)c1 | 1.02
O=C1Nc2ccccc2C(=O)N2CCCCC12 (centres unmarked) | 14.2
O=C(c1ccc([N+](=O)[O-])cc1)N1CCCC1 | 4.5
CCn1c(SCC(=O)c2ccccc2)nnc1-c1cnccn1 | -8.6
Cc1ccc2cccc(NC(=S)NC(=O)c3ccnn3C)c2n1 | 13.7
CC1CCCC(NC(=O)C2CCN(S(=O)(=O)c3cccc4nonc34)CC2)C1C (centres unmarked) | 4.71
Cn1c(-c2ccccc2)cnc1NCc1cccc([N+](=O)[O-])c1 | -72
C/C(N)=C(/C#N)C(=O)COC(=O)C1CCC(C(C)(C)C)CC1 (centres unmarked) | -7.3
COc1ccc(-c2nnc(SCc3ccccc3F)o2)cc1 | 1.79
Cc1ccc2nc(Cc3ccc(N)cc3)oc2c1 | 0.517
Cc1ccc2cc(CN(Cc3ccco3)C(=O)NCc3ccccc3)c(=O)[nH]c2c1C | 4.33
CS(=O)(=O)Nc1ccc(Cc2noc(-c3ccc4[nH]cc(CCN)c4c3)n2)cc1.O | 13.9
CCN(CC(=O)N1CCOCC1)S(=O)(=O)c1ccc(F)cc1 | 10.6
COc1ccc(NC(=O)c2ccccc2Sc2ccc(NC(C)=O)nc2)cc1 | 13.1
Cc1c(C(C)C)c(=O)n(-c2ccc(S(=O)(=O)NCc3ccccc3)cc2)n1C | -16.8
O=C(Nc1ccccc1)NC1CCN(Cc2c(F)cccc2Cl)CC1 | 7.91
